Out of some 310,000 compounds screened, about 2,200 (0.71%) showed an effect of 50% or more. The effect is printed as a negative number. The list shows a part of the results.
Each compound was assayed against human ether-à-go-go-related gene (hERG) potassium channel (human, UniProt Q12809) (assay: primary screen, population patch clamp on CHO cells stably expressing hERG).
human ether-à-go-go-related gene (hERG) potassium channel, sequence (Q12809 whole entry, looked up): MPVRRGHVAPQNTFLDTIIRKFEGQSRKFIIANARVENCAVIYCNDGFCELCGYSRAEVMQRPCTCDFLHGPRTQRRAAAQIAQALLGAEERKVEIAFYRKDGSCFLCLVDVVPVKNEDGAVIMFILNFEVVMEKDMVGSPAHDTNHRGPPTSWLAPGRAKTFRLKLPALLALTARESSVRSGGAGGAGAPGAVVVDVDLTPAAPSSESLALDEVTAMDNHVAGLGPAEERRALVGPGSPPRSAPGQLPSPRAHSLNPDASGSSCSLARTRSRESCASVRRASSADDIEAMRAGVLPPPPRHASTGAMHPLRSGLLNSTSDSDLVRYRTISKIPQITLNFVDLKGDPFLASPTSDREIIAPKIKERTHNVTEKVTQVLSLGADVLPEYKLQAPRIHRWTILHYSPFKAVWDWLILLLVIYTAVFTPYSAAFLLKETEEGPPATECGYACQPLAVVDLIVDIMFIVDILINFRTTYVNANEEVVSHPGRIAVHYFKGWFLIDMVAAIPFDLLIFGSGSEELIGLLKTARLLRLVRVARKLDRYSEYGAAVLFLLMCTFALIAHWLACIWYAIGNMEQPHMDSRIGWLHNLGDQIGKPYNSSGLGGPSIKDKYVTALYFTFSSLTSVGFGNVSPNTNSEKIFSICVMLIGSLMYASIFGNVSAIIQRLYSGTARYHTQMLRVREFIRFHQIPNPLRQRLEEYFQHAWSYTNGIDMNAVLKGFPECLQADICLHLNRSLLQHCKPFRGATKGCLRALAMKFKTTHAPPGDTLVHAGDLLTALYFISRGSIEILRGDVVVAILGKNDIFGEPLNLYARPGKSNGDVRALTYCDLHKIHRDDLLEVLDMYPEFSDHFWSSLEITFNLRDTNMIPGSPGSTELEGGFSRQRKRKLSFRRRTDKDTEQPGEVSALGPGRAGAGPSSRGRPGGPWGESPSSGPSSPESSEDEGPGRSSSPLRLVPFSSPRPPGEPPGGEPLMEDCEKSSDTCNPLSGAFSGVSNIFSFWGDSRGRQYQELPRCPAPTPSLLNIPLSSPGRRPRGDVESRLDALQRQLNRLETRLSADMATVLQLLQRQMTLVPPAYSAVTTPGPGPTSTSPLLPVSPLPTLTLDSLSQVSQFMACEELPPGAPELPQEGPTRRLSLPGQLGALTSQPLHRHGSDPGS

SMILES	hERG current change (%, negative = inhibition) at 1uM
C/C(=N\Nc1ccc(C#N)cc1[N+](=O)[O-])c1ccc(C)o1	-2.38%
COc1ccc(-n2c(N)c(C(=O)NCc3ccco3)c3nc4ccccc4nc32)c(OC)c1	9.95%
COc1cccc(C(=O)Nc2sc3c(c2C(=O)O)CCCC3)c1	17.9%
Cc1ccc2cc3cc(C(=O)NCCN4CCOCC4)oc3nc2c1	-1.2%
CC(Sc1ncnc2sc(-c3ccccc3)cc12)C(N)=O (stereo not drawn)	15.2%
CN(C)S(=O)(=O)c1cccc(NC(=O)c2ccncc2)c1	8.07%
CCOC(=O)c1c(CSc2cccs2)n(C)c2cc(Br)c(O)c(CN(C)C)c12.Cl	-13.8%
COc1ccc(OCCn2c(N)nc3ccccc32)cc1	-30%
O=C(CSc1nnc(NC(=O)C2CC(=O)N(c3ccc(F)cc3)C2)s1)NCc1ccco1 (stereo not drawn)	11.9%
CCCC(C)C(=O)Nc1cccc(NC(C)=O)c1 (stereo not drawn)	4.54%
O=C(CCc1ccccc1)N=C1SC2CS(=O)(=O)CC2N1c1ccccc1 (stereo not drawn)	14.9%
CCOC(=O)C1C(=O)NC(SCC(=O)OC)=C(C#N)C1c1ccccc1OCC (stereo not drawn)	-1.84%
COc1ccc(S(=O)(=O)N2CCOCC2)cc1NC(=O)C1CCCN1C(=O)c1cccs1 (stereo not drawn)	6.39%
Cc1ccc(OCC(=O)OCC(=O)N2c3ccccc3CC2C)cc1C (stereo not drawn)	7.81%
COC(=O)C(Cc1ccccc1)NC(=O)c1ccc(NS(=O)(=O)c2ccc3[nH]c(=O)[nH]c3c2)cc1 (stereo not drawn)	14.2%
CCOc1ccc(CCNC(=O)C2CCCN2C(=O)OCc2ccccc2)cc1OCC (stereo not drawn)	19.1%
CC1(C)C=Cc2cc(-c3coc4cc(O)cc(O)c4c3=O)cc(O)c2O1	1.85%
O=C(Nc1ccncc1)c1cc(-c2ccccn2)nc2ccccc12	5.97%
CCOc1cccc(Nc2ccc([N+](=O)[O-])cn2)c1	14.8%
COc1ccccc1S(=O)(=O)Cc1ccc(C(=O)NCCN2CCCCCC2)o1	9.15%
Cn1ncc(C(=O)N=S(C)(=O)c2ccccc2)c1[N+](=O)[O-] (stereo not drawn)	13.3%
Cc1ccccc1OCCNC(=O)CSc1ccc(C(F)(F)F)cc1[N+](=O)[O-]	12.6%

SMILES	hERG current change (%, negative = inhibition) at 1uM
COc1ccccc1C(CNC(=O)c1ccc(OCc2c(C)noc2C)cc1)N1CCCC1 (stereo not drawn)	6.37%
C[C@H](NCCc1ccc(O)cc1)[C@H](O)c1ccc(O)cc1.Cl	6.91%
CC(C)C(NC(=O)c1ccccc1)C(=O)N1CCCCCC1 (stereo not drawn)	18.1%
Cc1cc(=O)oc2cc(OCC(=O)OCc3nnc(-c4ccccc4)o3)ccc12	14.9%
CC(=O)N1CCC(N(CCN2CCOCC2)C(=S)Nc2ccc(C)cc2)CC1	5.62%
O=C(COC(=O)C12CC3CC(CC(Br)(C3)C1)C2)N1CCOCC1	3.26%
Nn1c(SCc2ccccc2)nnc1C1CCCCC1	8.62%
CNS(=O)(=O)c1cccc(C(=O)OCC(=O)c2cc3ccccc3o2)c1	21%
COc1cccc(N2CCN(c3ccc4nnc(CCC(=O)Nc5ccc(F)cc5F)n4n3)CC2)c1	4.98%
O=S(=O)(/N=C(/c1ccc(F)cc1)N1CCCCC1)c1ccc(Cl)cc1	2.75%
Cc1ccc(C(=O)N(CC(=O)NC2CCCCC2)c2ccccc2F)s1	9.21%
O=C(c1ccco1)N1CCN(C(c2ccc(Cl)cc2)c2nnnn2Cc2ccccc2)CC1 (stereo not drawn)	1.83%
COC(=O)NN1C(=O)C(c2ccccc2)=C(c2ccc(Cl)cc2)C1=O	8.09%
FC(F)(F)c1cccc(OCc2noc(-c3ccsc3)n2)c1	2.33%
Cc1nc2cc(-c3ccccc3)nn2c(C)c1CCC(=O)N1CCC2(CC1)OCCO2	-17.1%
CCCCN(C(=O)CSc1nnnn1C)c1c(N)n(Cc2ccccc2)c(=O)[nH]c1=O	5.98%
Cc1c(C#N)c2ncnc(N)c2n1-c1ccccc1	8.09%
CCN(c1ccccc1)S(=O)(=O)c1cc(CN2C(=O)c3cccnc3C2=O)ccc1OC	12.3%
COc1ccc(OC)c(NC(=O)c2cccnc2)c1	14.8%
CCCCN(Cc1ccc(C(=O)N[C@H](C(=O)O)C(C)C)cc1)C(=O)C(c1ccccc1)c1ccccc1	0.507%
Cc1cc(Cl)ccc1OCC(=O)N/N=C/c1ccncc1	10.4%
COC(=O)c1cc(S(=O)(=O)NCCc2ccc(SC)cc2)c[nH]1	8.98%

SMILES	hERG current change (%, negative = inhibition) at 1uM
O=c1[nH]c(N2CCOCC2)cc2ccccc12	4.63%
O=C1CCC(C(=O)Nc2cccc(S(=O)(=O)N3CCOCC3)c2)N1 (stereo not drawn)	5.74%
COc1ccc(NC(=O)CC2C(=O)N(c3ccccc3)C(=O)N2Cc2ccco2)cc1 (stereo not drawn)	3.5%
CCNc1nnc(-c2ccccc2OC)s1	-7.06%
O=C(NCc1ccccn1)Nc1ccc2c(c1)OCO2	17.1%
Cn1c(=O)oc2cc(S(=O)(=O)N3CCCC3)ccc21	13.2%
Fc1ccc(/C=N/N2CCOCC2)c(F)c1	47.1%
COC(=O)C1=C(C(=O)OC)C(c2cc(Br)ccc2O)c2sc(=O)[nH]c2S1 (stereo not drawn)	-4.61%
O=C(NCc1ccccc1)N[C@@H](Cc1c[nH]c2ccccc12)C(=O)O	-3.67%
CC(C)COc1ccc(-c2nnn(CC(=O)N3CCCC3)n2)cc1	-10.7%
CC(=O)c1oc2ccccc2c1NC(=O)COC(=O)c1ccc(-n2nc(C)cc2C)cc1	21.3%
CCC(=Nc1ccccc1OC)C1=C(O)CC(c2ccccc2)CC1=O (stereo not drawn)	4.65%
COC(=O)c1cc(OC)c(OC)cc1-n1cnc2cc(OC)c(OC)cc2c1=O	14.4%
C=CCN1C(=O)C2(OCCCO2)c2cc(Cl)ccc21	13.8%
CCOc1ccc(CN2CCN(Cc3cccc4c3OCO4)CC2CCO)cc1 (stereo not drawn)	-64.9%
COC(=O)c1cc(NC(=O)Cc2coc3cc(OC)ccc23)cc(C(=O)OC)c1	3.34%
COC(=O)c1ccc(Sc2ccccn2)c([N+](=O)[O-])c1	12.6%
N#CCCN(C(=O)COC(=O)c1ccc2c(=O)n3c(nc2c1)CCC3)c1ccc(F)cc1	1.88%
CC1(C)CC(N(Cc2ccco2)C(=O)Cc2ccccc2)CCO1 (stereo not drawn)	6.16%
O=c1c2c3c(sc2n2c(=S)[nH]nc2n1-c1ccccc1)CCC3	13%
COC(=O)CC1C(=O)NCCN1C(=O)c1ccccc1 (stereo not drawn)	11.9%
C=CCc1cccc2cc(C(=O)OCC)c(=O)oc12	-16.4%

SMILES	hERG current change (%, negative = inhibition) at 1uM
Cc1ccc2c(c1)N(Cc1ccncc1)C(=O)C(C)O2 (stereo not drawn)	-10.9%
CCO[C@@H]1OC(C(=O)NCc2ccccc2)=C[C@H](c2coc3ccccc3c2=O)[C@H]1CCCO	-4.22%
Cc1[nH]c2ccccc2c(=O)c1CN1CCCCC1	5.08%
CCn1cc(C(=O)NCCc2ccccc2)c(=O)c2cc(F)c(N3CCN(C)CC3)cc21	3.58%
CC(Oc1ccc(F)cc1)C(=O)Nc1cc(S(=O)(=O)N2CCOCC2)ccc1N1CCCC1 (stereo not drawn)	14.5%
COc1cc(OC)cc(C(=O)Nc2ccc(Br)cc2C(=O)c2ccccc2)c1	14.7%
CC(C)c1cc(-c2cc(-c3ccccc3)on2)nc(NC2CCCC2)n1	13.2%
CC(C)CN1C2CCCC1CC(NC(=O)c1ccc([N+](=O)[O-])cc1)C2 (stereo not drawn)	-70.1%
Cc1ccc2[nH]c(=O)c(CN(C(=O)c3cccc([N+](=O)[O-])c3)C(C)(C)C)cc2c1	14.4%
Cc1ccc(OCCCC(=O)Nc2ccc(Br)cc2)cc1	11.5%
CCCCCN(C(=O)CCC(=O)OCc1ccc(C(C)(C)C)cc1)c1c(N)n(CCCC)c(=O)[nH]c1=O	11.2%
CCOC(=O)/C=C/C(=O)OCC(=O)NCc1ccccc1	16.1%
Cc1cccc(NC(=O)CN(C)C(=O)C2CC2)c1C	14.4%
COCCN1CCN(C(=O)c2cc(COc3ccc(F)c(F)c3)on2)CC1	9.42%
Cc1cc(C)c(S(C)(=O)=O)c(=O)[nH]1	22.6%
Cc1nc(Nc2ccccc2F)c2oc3ccccc3c2n1	-17.6%
Cc1cc(C)n2nc(SCC(=O)NC(=O)c3ccccc3Cl)nc2n1	4.49%
Cc1cc(OCC(=O)N2CCC(C(=O)O)CC2)c2c(C)c(C)c(=O)oc2c1	14.4%
O=C(COc1ccc(F)cc1F)NNC(=O)Nc1cccc([N+](=O)[O-])c1	5.48%
Cc1nc(-c2ccc(C(=O)Nc3ccccc3F)cc2)cs1	9.9%
CCOc1ccc(C(=O)OCC(=O)N(Cc2ccccc2)Cc2ccccc2)cc1OC	-2.76%

— publication PMC4336329 (PLoS ONE, 2015)
